Measured values reported in PubChem BioAssay AID485360 (National Center for Advancing Translational Sciences (NCATS), 2010).
Among all 230,000 compounds or so, about 1,500 (0.65%) were called active. The inconclusive results got no clear call from the source; some entries with a clear call stand among them for comparison. Calls come from the whole dose curve; as a rule, active = well fitted inhibition curve with a large enough effect; inconclusive = small, poorly fitted or top-dose-only effect; inactive = no such curve, though single readings can be large or run the other way. Potencies of inconclusive entries are doubtful fits and often do not repeat.

Target: Lethal(3)malignant brain tumor-like protein 1 (Homo sapiens) (UniProt Q9Y468)
Assay: qHTS Assay for the Inhibitors of L3MBTL1; note: nearly all actives have a fitted effect of over 60% in size
Settings: AlphaScreen L3MBTL1–H3K9me1 peptide binding; activity, negative = inhibition: at 57.1 µM (top of the series)
Method in brief: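 Displacement of a biotinylated histone H3(1-15) peptide monomethylated at Lys9 (75 nM) from L3MBTL1 (50 nM) was measured by AlphaScreen after a 30 min room-temperature compound incubation; cefsulodin titration served as intraplate control.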
% is set by controls: 0 for no effect and ±100 for the full control effect; potency is the fitted concentration of half-maximal effect; tags give direction and shape of the fitted curve.

Sequence of UniProt Q9Y468 (Q9Y468 whole entry, looked up): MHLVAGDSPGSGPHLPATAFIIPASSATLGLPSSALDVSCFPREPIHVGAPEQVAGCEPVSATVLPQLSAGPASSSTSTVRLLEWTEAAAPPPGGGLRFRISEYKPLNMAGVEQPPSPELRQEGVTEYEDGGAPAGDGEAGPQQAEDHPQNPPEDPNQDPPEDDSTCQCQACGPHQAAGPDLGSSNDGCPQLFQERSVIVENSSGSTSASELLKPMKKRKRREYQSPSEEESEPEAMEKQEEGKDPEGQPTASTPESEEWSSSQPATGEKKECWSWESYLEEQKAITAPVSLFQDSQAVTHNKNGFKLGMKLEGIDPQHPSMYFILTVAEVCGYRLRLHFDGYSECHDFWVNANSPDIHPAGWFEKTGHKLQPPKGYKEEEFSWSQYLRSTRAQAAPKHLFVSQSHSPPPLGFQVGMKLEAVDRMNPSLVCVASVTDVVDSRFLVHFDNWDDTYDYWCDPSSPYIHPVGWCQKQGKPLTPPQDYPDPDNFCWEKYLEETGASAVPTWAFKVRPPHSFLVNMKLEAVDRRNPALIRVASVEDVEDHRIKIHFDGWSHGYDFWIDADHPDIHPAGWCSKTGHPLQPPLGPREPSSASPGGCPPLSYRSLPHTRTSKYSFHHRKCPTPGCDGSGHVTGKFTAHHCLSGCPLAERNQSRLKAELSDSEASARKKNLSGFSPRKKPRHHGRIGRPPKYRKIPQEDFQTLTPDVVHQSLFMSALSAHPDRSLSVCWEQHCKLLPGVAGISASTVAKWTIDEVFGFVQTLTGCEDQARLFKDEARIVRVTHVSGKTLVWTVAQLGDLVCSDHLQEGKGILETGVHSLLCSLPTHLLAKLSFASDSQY

SMILES	Potency	activity, negative = inhibition
O=C1/C(=C/c2ccco2)Oc2c1ccc(O)c2CN1CCCCC1	inconclusive: 31.6 µM [inhibitor, single point]	
COc1ccc(-c2sc3cc(OC)c(OC)cc3c2C#CCO)cc1	inconclusive: 39.8 µM [inhibitor, single point]	
COc1ccc(C(=O)Nc2cc(=O)n(C)c(=O)n2C)cc1OC	inconclusive: 4.47 µM [inhibitor, single point]	
O=C(NC(=O)c1cnccc1C(F)(F)F)Nc1ccccc1		inactive: 2.07%
COc1ccc(O)c(/C=N/NC(=S)Nc2cccnc2)c1	active: 11.2 µM	
CC1(C)Cc2c(sc3c2c(=N)n(Cc2ccco2)c(=O)n3Cc2ccc(Cl)cc2)CO1		inactive: -7.67%
COc1ccc(C2C(C(=O)O)CC(=O)N2c2ccc(OC)cc2)cc1 (configuration not stated)	inconclusive: 5.62 µM [inhibitor, single point]	
O=C(OCc1cc(=O)n2ccsc2n1)c1ccccc1NCCO	inconclusive: 31.6 µM [inhibitor, single point]	
O=C1CCCc2c1[nH]c1ccc(Cl)cc21		inactive: 7.53%
Cc1ccccc1NS(=O)(=O)c1ccc2[nH]cc(C(=O)N3CCCCC3)c(=O)c2c1	inconclusive: 25.1 µM [inhibitor, single point]	
COc1ccc(S(=O)(=O)N2CCOC23CCN(S(=O)(=O)c2ccc(F)cc2)CC3)cc1		inactive: -3.13%
Cc1cc(C(=O)COc2ccccc2C(N)=O)c(C)n1C		inactive: 24.9%
COc1ccc(C(=O)N/C(=C\c2ccccc2)C(=O)NC(CCSC)C(=O)O)cc1 (configuration not stated)		inactive: 0.805%
COc1cc(CNCc2cccc3ccccc23)cc(OC)c1		inactive: 0.535%
Cc1ccn2c(-c3n[nH]c(=S)n3C)c(C)nc2c1		inactive: -16%
Cn1ccnc1/C(=N\NC(=O)c1ccccc1)c1cccc([N+](=O)[O-])c1	inconclusive: 31.6 µM [inhibitor, partial curve]	
O=C(CSc1ccccc1)Nc1ccc(-c2nc3ccccc3[nH]2)cc1		inactive: 20.9%
O=C1CC(=C(c2ccccc2)c2ccccc2)C(=O)N1CCCN1CCN(c2cccc(Cl)c2)CC1	inconclusive: 5.62 µM [inhibitor, single point]	
O=C(O)C(C(=O)/C=C/c1ccco1)=C1SCCS1	inconclusive: 28.2 µM [inhibitor, single point]	
c1ccc(CN(Cc2ccco2)C(c2ccncc2)c2nnnn2C2CCCC2)cc1 (configuration not stated)	inconclusive: 28.2 µM [inhibitor, partial curve]	
COc1ccc(S(=O)(=O)NCCc2c(C)nn(C)c2Oc2ccccc2)cc1	inconclusive: 7.08 µM [inhibitor, single point]	
CCCN(C(=O)Cc1nc(N)n[nH]1)C1(C(=O)Nc2ccccc2C)CCCCC1	inconclusive: 15.8 µM [inhibitor, partial curve]	
CCOc1ccc2c(C)c(C(=O)O)oc2c1OCC	inconclusive: 6.31 µM [inhibitor, single point]	
CCc1c(C)nc2ncnn2c1NCCc1ccc(Cl)cc1	inconclusive: 39.8 µM [inhibitor, single point]	

SMILES	Potency	activity, negative = inhibition
CCCNC(=O)c1ccc(N2CCC3(CC2)CC(c2cccc(Br)c2)=NO3)c(NC(=O)c2ccco2)c1	inconclusive: 5.62 µM [inhibitor, single point]	
O=C(NCC1CCCO1)c1onc(CSc2ccccc2F)c1C(=O)O (configuration not stated)		inactive: 6.56%
COC(=O)c1ccc(NC(=S)NCC2CC2)cc1		inactive: 2.09%
O=C(c1ccc(CSc2nc3ccncc3[nH]2)cc1)N1CCCCC1		inactive: 4.56%
CCOC(=O)CCSCC(=O)Nc1nnc(C)s1		inactive: 10.4%
CCc1ccc2oc(C(=O)NCc3ccc(S(N)(=O)=O)cc3)c(C)c2c1	inconclusive: 0.112 µM [inhibitor, full curve, poor fit]	
Cc1nonc1NC(=O)CSc1ccc(-c2ccccc2)nn1		inactive: -5.19%
COc1ccc(S(=O)(=O)N2CCOC23CCN(S(=O)(=O)c2c(C)cc(C)cc2C)CC3)cc1	inconclusive: 0.794 µM [inhibitor, single point]	
Cc1ccn2c(-c3n[nH]c(=S)n3Cc3ccccc3)c(C)nc2c1		inactive: 4.99%
CCn1c(SCC(=O)N2CCN(c3ccc(Cl)cc3)CC2)nc2ccccc2c1=O		inactive: 1.3%
O=c1oc2ccccc2c(Nc2ccc(F)cc2)c1[N+](=O)[O-]	inconclusive: 0.1 µM [inhibitor, full curve, poor fit]	
Cn1c(N)c(C(=O)COC(=O)Cc2ccc(Cl)cc2)c(=O)n(C)c1=O		inactive: -0.847%
COc1ccc(N2CCN(c3cc(C)c4ccc(C)cc4n3)CC2)cc1	inconclusive: 20 µM [inhibitor, single point]	
COC(=O)N1CCN(c2ccc(OC)cc2)CC1	inconclusive: 1.12 µM [inhibitor, single point]	
CC(C)(C)N/N=C/c1c(O)n(-c2ccc(Cl)cn2)c(=O)c2ccccc12	inconclusive: 5.62 µM [inhibitor, single point]	
Cc1oc(=O)c(NC(=O)c2cccc(Cl)c2)cc1C(=O)c1ccccc1		inactive: 9.55%
O=C(CN1CCCC1)N/N=C/c1c(O)ccc2ccccc12	inconclusive: 35.5 µM [inhibitor, partial curve]	
CC(=O)c1ccc(S(=O)(=O)Nc2ccc(-c3ccc4nncn4n3)cc2)cc1	inconclusive: 22.4 µM [inhibitor, single point]	
N#CCCn1cc(/C=C2\NC(=S)N(c3ccccc3)C2=O)c(-c2ccc(F)cc2)n1	inconclusive: 39.8 µM [inhibitor, single point]	
CN(Cc1cccc(F)c1)C(=O)CN1CCN(S(=O)(=O)c2ccc3c(c2)OCCCO3)CC1		inactive: -2.3%
CCOc1ccc(-c2nnn(CC(=O)NCc3ccco3)n2)cc1OCC	inconclusive: 6.31 µM [inhibitor, single point]	
Cc1ccc(C)c(S(=O)(=O)N2CCN(c3ncccn3)CC2)c1	inconclusive: 4.47 µM [inhibitor, single point]	
CCOc1cc(C(=S)N2CCCCC2)ccc1OS(=O)(=O)c1ccc(Cl)cc1	inconclusive: 31.6 µM [inhibitor, single point]	
